# Measurements from PubChem BioAssay AID2451 (National Center for Advancing Translational Sciences (NCATS), 2010).
# Among all 290,000 compounds or so, about 2,100 (0.72%) were called active. This list was built around the results that the source calls inconclusive (neither active nor inactive); the mix of calls is not that of the screen. The call rests on the fitted dose curve; in most records, active means well fitted inhibition curve with a large enough effect; inconclusive means small, poorly fitted or top-dose-only effect, or effect the other way; inactive means flat fitted curve, though single readings scatter. A potency beside an inconclusive call is a rough fit, not a confirmed value.
# Target: Fructose-bisphosphate aldolase (Giardia intestinalis (strain ATCC 50803 / WB clone C6)) (UniProt A8B2U2)
# Sequence of UniProt A8B2U2 (A8B2U2 whole entry, looked up): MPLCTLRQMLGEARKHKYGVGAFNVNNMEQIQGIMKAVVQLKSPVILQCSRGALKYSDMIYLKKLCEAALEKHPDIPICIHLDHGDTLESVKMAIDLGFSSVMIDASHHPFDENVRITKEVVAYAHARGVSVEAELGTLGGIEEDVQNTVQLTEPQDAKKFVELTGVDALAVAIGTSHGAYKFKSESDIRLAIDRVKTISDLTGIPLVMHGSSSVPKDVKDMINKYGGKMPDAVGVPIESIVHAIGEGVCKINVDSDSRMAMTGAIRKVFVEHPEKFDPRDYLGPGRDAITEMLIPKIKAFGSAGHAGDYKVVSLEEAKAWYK
# Experiment: qHTS Assay for Inhibitors of Fructose-1,6-bisphosphate Aldolase from Giardia Lamblia; further: nearly all actives have a fitted effect of over 55% in size
# Details: purified Giardia FBPA; activity, negative = inhibition: at 59.6 µM (top of the series) unless noted
# Excerpt: Assay Provider: Osnat Herzberg, University of Maryland
# The objective of this project is to obtain compounds that inhibit Giardia lamblia growth. G. lamblia is a human pathogen which afflicts impoverished nations; it is the most common cause of outbreaks of diarrhea in the United States. During the course of our study of potential drug targets in Giardia, we have identified the Class II (Zn2+ functions in electrophilic catalysis) fructose-1,6-bisphosphate aldolase (FBPA) as an excellent candidate for drug targeting. FBPA is a key glycolytic pathway enzyme, essential for G. lamblia survival. The human FBPA belongs to the Class I aldolases, which have a different substrate binding site structure and a radically different catalytic mechanism (employing a lysine-Schiff base intermediate). Therefore, affinity-based or mechanism-based inhibitors of the Giardia FBPA are expected not to interfere with the catalytic function of the human FBPA.
# A glyceraldehyde-3-phosphate dehydrogenase/triose phosphate isomerase/NAD/arsenate coupled assay was adapted to the 1536-well HTP format for use in the primary screen. This was done by coupling it to a diaphorase/resazurin/resorufin reaction that can be monitored by fluorescence (excitation, 544 nm; emission, 590 nm). Compounds identified in this screen will be further evaluated by coupling the glycerol-3-phosphate/triose phosphate isomerase/NADH assay to a phenazine methosulfate/tetranitroblue tetrazolium color reaction. False positives due to the dehydrogenases and diaphorase inhibition will be eliminated, and selectivity assay will triage inhibitors of mammalian triose phosphate isomerase and the Class I FBPA. G. lamblia FBPA inhibitors identified by the in vitro analyses will be examined for growth inhibition of Giardia trophozoites, and for cytotoxicity in human cells.
# Step,Parameter,Value,Description
# 1,Enzyme reagent,2 uL,40 nM FBPA
# 2,Compound,23 nL,3.68 nM-57.5 uM final concentration
# 3,Time,10 min,RT Incubation
# 4,Substrate/detection Reagent,2 uL,Substrate + enzyme coupling system + AmpLite Red kit
# 5,Time,20 min,RT Incubation
# 6,Detector,525 nm/598 nm (Fluorescence),ViewLux Fluorescence Read (Read 1)
# 1,Medium-binding black solid-bottom Kalypsys plates. FRD or Kalypsys dispenser, 2 uL of FBPA enzyme. Bottle kept at 4C.
# 2,Compound Library (10 mM ,1:5 dilution). Pin-transferred for a [final] range of 3.68 nM-57.5 uM.
# 4,FRD or Kalypsys dispenser, 2 uL of reaction mixture. Bottle kept at 4C and covered in foil to protect from light.
# 6,ViewLux Protocol 1194; Excitation filter wheel A (525/20 Pol; BODIPY TMR FP), Emission filter wheel B (598/25 S; BODIPY TMR FP S).
# Keywords: Fructose-bisphosphate aldolase, FBPA , Giardia lamblia , Giardia, HTS, Inhibitors
# On the % scale 0 is the no-effect control and ±100 the full control effect; potency means the concentration at half of the fitted maximal effect; tags describe the fitted curve by direction and shape.
SMILES,Potency,"activity, negative = inhibition"
O=C1NC(=Nc2ccccc2)S/C1=C\C=C\c1ccco1,"inconclusive: 9.98 µM [inhibitor, partial curve]",–
Cc1ccccc1-c1nnn(Cc2ccc(-c3nn[nH]n3)cc2)n1,"inconclusive: 19.9 µM [activator, partial curve]",–
O=C(Cc1ccc(Cl)cc1)NNC(=S)NC(=O)c1cccs1,"inconclusive: 22.3 µM [activator, single point]",–
[S-]c1nnc(-c2ccc(Br)cc2)n1-c1ccccc1.[Zn+2],"inconclusive: 12.6 µM [activator, partial curve]",–
Cc1ccc(-c2csc(NC(=O)c3ccc([N+](=O)[O-])o3)n2)cc1,–,inactive: -8.74%
CC(=O)n1cc(/C=N/NC(=O)c2ccccc2Cl)c2ccccc21,–,inactive: -1.8%
COc1ccc(C)cc1NCc1ccc(OC)c(C)c1OC,"inconclusive: 31.6 µM [inhibitor, partial curve]",–
CN(CCOc1ccccc1)CC(=O)Nc1cccc(Br)c1,"inconclusive: 19.9 µM [inhibitor, partial curve]",–
C/C(=N\NC(N)=S)c1ccccc1,active: 15.8 µM,–
CCN(Cc1ccncc1)Cc1c(O)ccc2ccccc12,"inconclusive: 15.8 µM [inhibitor, partial curve]",–
COc1ccc(S(=O)(=O)N2CCNC(=O)C2)cc1Br,–,inactive: 0.39%
COc1cc(NC(=S)NCc2cccnc2)cc(OC)c1,–,inactive: -13.1%
CO/N=C/C(C#N)c1ncc(C(F)(F)F)cc1Cl (stereo not given),active: 19.9 µM,–
O=C(Nc1nccs1)c1ccc([N+](=O)[O-])cc1Cl,"inconclusive: 28.2 µM [inhibitor, single point]",–
CSc1ncccc1C(=O)N1CCN(S(=O)(=O)c2ccc(C)cc2)CC1,–,inactive: -5.94%
CCc1ccc2[nH]c(=O)c(CN(Cc3ccc(OC)cc3)Cc3nnnn3CCOC)cc2c1,"inconclusive: 39.8 µM [inhibitor, single point]",–
CC(=O)c1ccc(NC(=O)c2c(C)nn(-c3ccccc3)c2Cl)cc1,"inconclusive: 19.9 µM [inhibitor, partial curve]",–
CC1CCN(C(C)C(=O)Nc2ccccc2-c2ccccc2)CC1 (stereo not given),"inconclusive: 19.9 µM [inhibitor, partial curve]",–
COC(=O)C/C=C/[C@@H](C)[C@@H](/C=N/O[C@@H](C)c1cn([C@H](CO)Cc2ccccc2)nn1)NS(=O)(=O)c1ccc(C)cc1,–,inactive: -6.57%
O=C1N/C(=C/c2ccc(N3CCOCC3)o2)C(=O)N1c1ccccc1,"inconclusive: 15.8 µM [inhibitor, partial curve]",–
O=c1ccc2c(-c3ccccc3)c3ccc(O)cc3oc-2c1,active: 14.1 µM,–
CCOc1ccc(OCCOCCN2CCCC2)cc1,active: 28.2 µM,–
O=C(NNC(=S)Nc1ccc(Cl)c(Cl)c1)c1ccccn1,active: 14.1 µM,–
Cn1cc(/C=C/c2cc[n+](C)cc2)c2cc(F)ccc21,"inconclusive: 20 µM [inhibitor, partial curve]",–
COCCn1nnnc1C(c1ccccc1OC)N1CCN(C(=O)c2ccco2)CC1 (stereo not given),"inconclusive: 20 µM [inhibitor, single point]",–

SMILES,Potency,"activity, negative = inhibition"
CC(=O)[C@@H]1[C@H]2[C@H](C(=O)[C@H]3OC[C@@H]2O3)[C@H]2C=Cc3ccccc3N21,active: 22.3 µM,–
O=C(CN1CCCCC1)NN(Cc1ccccc1)c1ccccc1,"inconclusive: 19.9 µM [inhibitor, partial curve]",–
COc1ccc(NC2CCCN(C(=O)c3ccccc3N3CCOCC3)C2)cc1OC (stereo not given),"inconclusive: 22.4 µM [inhibitor, partial curve]",–
Cc1c(C)n(CC(O)CNc2ccccc2)c2ccccc12 (stereo not given),"inconclusive: 17.7 µM [inhibitor, single point]",–
COc1ccc(OC)c(N=C2C(=O)Nc3ccccc32)c1,"inconclusive: 15.8 µM [inhibitor, single point]",–
COc1cc(C(=O)NC(=S)Nc2ccc([N+](=O)[O-])cc2)cc(OC)c1OC,active: 12.6 µM,–
COc1ccc(N)c2c1OCCC2=O,"inconclusive: 5.61 µM [inhibitor, partial curve]",–
CC1CC1C(=O)Nc1ccc(-c2ccccc2)cc1 (stereo not given),–,inactive: 0.0774%
CCn1c([N+](=O)[O-])nc2c1c(=O)[nH]c(=O)n2C,active: 12.6 µM,–
O=C(CSc1c2c(nc3ccccc13)CCCC2)NCc1ccco1,–,inactive: -16.2%
CN(/N=C/c1ccc(Cl)cc1)c1ncc(Cl)cc1C(F)(F)F,–,inactive: -0.313%
COc1ccccc1CC(=O)Nc1ccc(Cl)cc1C(=O)O,"inconclusive: 17.7 µM [inhibitor, single point]",–
COc1ccc(S(=O)(=O)/N=C2\C=C(Nc3ccc(O)cc3)C(=O)c3ccccc32)cc1,"inconclusive: 0.501 µM [inhibitor, full curve]",–
Cc1cc(OCCn2cc(/C(N)=N/O)c3ccccc32)ccc1Cl,–,inactive: -2.18%
O=C(COc1ccc(Br)cc1)Nc1ccc([N+](=O)[O-])cn1,–,inactive: -0.568%
CC(=O)Nc1ccc(CN2CCN(c3cccc(C(F)(F)F)c3)CC2)cc1,"inconclusive: 15.8 µM [inhibitor, partial curve]",–
C=CCNC(=S)Nc1ccccc1-c1nnc2n1CCCCC2,active: 12.6 µM,–
COC(=O)c1cc(NCc2ccc3c(c2)OCO3)ccc1N1CCOCC1,"inconclusive: 15.8 µM [inhibitor, partial curve]",–
CCCn1c(-c2ccc(F)cc2)nc2c(NCCN(CC)CC)nc(C)nc21,–,inactive: 2.53%
Clc1cccc(Cl)c1CN1CCN(c2ncccn2)CC1,"inconclusive: 11.2 µM [inhibitor, partial curve]",–
COc1ccc(CNc2ncc(-c3ccccc3)n2C)cc1,active: 17.8 µM,–
COc1ccc(CNC(=S)N2CCN(Cc3ccccc3)CC2)cc1,"inconclusive: 17.7 µM [inhibitor, partial curve]",–
Cc1nc(NC(N)=S)sc1C(=O)Nc1ccccc1,"inconclusive: 15.8 µM [inhibitor, single point]",–
COc1ccc(C(=O)C2CCCN(C(=O)C3CCOCC3)C2)c(C)c1 (stereo not given),–,inactive: 5.78%
CCN1/C(=C/c2ccc3cc(C)ccc3[n+]2CC)Sc2ccccc21,–,inactive: 17.6%

SMILES,Potency,"activity, negative = inhibition"
CC(C)(C)OC(=O)CNC(=O)c1[nH]cnc1C(=O)NCC(=O)OCc1ccccc1,"inconclusive: 11.2 µM [inhibitor, partial curve]",–
c1ccc(Cn2c(CNc3nc4ccccc4n3CCN3CCOCC3)nc3ccccc32)cc1,–,inactive: 3.04%
O=C1NC(=S)N/C1=C/c1ccc2c(c1)OCO2,–,inactive: -3.75%
COc1ccc(CN(Cc2cccn2C)S(=O)(=O)c2ccc(C)cc2)cc1,"inconclusive: 15.8 µM [inhibitor, single point]",–
Cn1c(N)c(C(=O)Nc2ccc(-c3ccccc3)cc2)sc1=S,"inconclusive: 3.15 µM [inhibitor, partial curve, poor fit]",–
Cc1csc(NC(=O)c2cccc([N+](=O)[O-])c2C(=O)O)n1,"inconclusive: 31.6 µM [inhibitor, single point]",–
O=C1C2C3C=CC(CC3)C2C(=O)N1/N=C/c1ccccc1O (stereo not given),–,inactive: -2.73%
CC(NO)/C(=N\O)c1cccs1 (stereo not given),"inconclusive: 35.4 µM [inhibitor, single point]",–
COC(=O)CSC1=C(C#N)C(=O)NC(c2ccccc2)S1 (stereo not given),"inconclusive: 31.5 µM [inhibitor, single point]",–
Cc1cc(C)c2[nH]c(=O)c(C(c3nnnn3Cc3ccc4c(c3)OCO4)N3CCC(C)CC3)cc2c1 (stereo not given),–,inactive: -0.0173%
COc1ccc(NC(=O)c2cc(S(=O)(=O)N3CCCCC3)ccc2N2CCCCC2)cn1,"inconclusive: 17.7 µM [inhibitor, partial curve]",–
N#CC1=C(N)NC(=S)C(C(N)=O)C1c1ccccc1F (stereo not given),"inconclusive: 19.9 µM [inhibitor, single point]",–
O=C(Nc1ccc(N2CCOCC2)c(Cl)c1)c1cccc(F)c1,"inconclusive: 15.8 µM [inhibitor, partial curve]",–
COc1cc(CNCc2ccc(SC)cc2)cc(OC)c1,"inconclusive: 15.8 µM [inhibitor, single point]",–
O=C(CN1CC[n+]2c(-c3cccs3)csc21)c1ccc(-c2ccccc2)cc1,–,inactive: 4.11%
Cc1nc2cc(C(F)(F)F)ccc2n1CCNc1nc(-c2ccc(F)cc2)cs1,"inconclusive: 22.4 µM [inhibitor, partial curve]",–
Cc1ccc(C=Nc2ccccc2C(N)=O)cc1,"inconclusive: 19.9 µM [inhibitor, single point]",–
COc1cc(OC)c(C2C(C#N)=C(N)OC3=C2C(=O)CC(C)(C)C3)cc1OC (stereo not given),"inconclusive: 11.2 µM [inhibitor, partial curve]",–
CCOC(=O)C1=C(O)/C(=C\c2ccc(CNC(=O)C(=O)Nc3ccc(C)c(C)c3)o2)N=C1C,–,inactive: -14.7%
COc1ccc2c3c(cccc13)OCC2=O,"inconclusive: 14.1 µM [inhibitor, partial curve]",–
C=CCn1c(OCc2ccccc2)n[nH]c1=S,"inconclusive: 2.82 µM [inhibitor, full curve]",–
COCCCNC(=S)N1CCN(C)CC1,"inconclusive: 19.9 µM [inhibitor, partial curve]",–
CC(Nc1cccc2ccccc12)C(=O)N/N=C/c1ccccn1 (stereo not given),"inconclusive: 11.2 µM [inhibitor, partial curve]",–
CN(C)c1ccnc2sc(C(N)=O)c(N)c12,"inconclusive: 31.5 µM [inhibitor, single point]",–
Nc1ccc2ncccc2c1N,"inconclusive: 3.54 µM [inhibitor, full curve]",–
